# Results from PubChem BioAssay AID686978 (National Center for Advancing Translational Sciences (NCATS), 2013).
# The whole screen tested about 420,000 compounds, of which about 64,000 (15%) were called active. The shares of active, inactive and inconclusive entries below differ from those in the screen. The call rests on the fitted dose curve; in most records, active means well fitted inhibition curve with a large enough effect; inconclusive means small, poorly fitted or top-dose-only effect; inactive means flat fitted curve, though single readings scatter. Potencies of inconclusive entries are left out as doubtful fits.
# Assay: qHTS for Inhibitors of human tyrosyl-DNA phosphodiesterase 1 (TDP1): qHTS in cells in absence of CPT; further: nearly all actives have a fitted effect of over 55% in size
# Conditions: DT40 Tdp1-/- hTDP1 cells, no CPT, ATP luminescence, 48 h; activity change, negative = growth inhibition: at 46.2 µM (top of the series) unless noted
# How it was run: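 Growth kinetics read by CellTiter-Glo luminescence after ≥48 hr at 37 °C. Cells: DT40 Tdp1-/- stably carrying human TDP1, 400 per well, compound exposure in the absence of CPT (DMSO vehicle).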
# On the % scale 0 is the no-effect control and ±100 the full control effect; potency means the concentration at half of the fitted maximal effect; tags describe the fitted curve by direction and shape.
Compound,"activity change, negative = growth inhibition",Potency
CCCSc1nnc2nc3c(nn12)c1ccccc1n3C,inconclusive: -34.8% [inhibitor],–
CCOC(=O)c1cccc(NS(=O)(=O)c2ccc(-c3cnc(C4CC4)o3)cc2)c1,–,active: 2.59 µM
NC(=O)c1nc(Nc2ccccc2)sc1NC(=O)c1ccccc1Br,–,active: 20.6 µM
S=C(NC1CCCCC1)NC1CC2CCC(C1)N2Cc1ccccc1 (centres undefined),–,active: 18.4 µM
Cc1ccc(C)c(S(=O)(=O)N2CCN(CC(=O)Nc3ccc([N+](=O)[O-])cc3)CC2)c1,–,active: 16.4 µM
COc1ccc(Nc2ccc(S(=O)(=O)N3CCCCCC3)cc2[N+](=O)[O-])cc1,–,active: 23.1 µM
COc1cc(CNC(=O)c2cc(-c3cc(Cl)ccc3C)n[nH]2)cc(OC)c1,–,"inconclusive [inhibitor, single point]"
CCOC(=O)c1cccc(NC(=O)c2cc3c(-c4cccc(OC)c4)nn(C)c3s2)c1,–,active: 16.4 µM
COc1cc(NC(=O)CSc2nc3ccccc3nc2Cc2ccc(Cl)cc2)cc(OC)c1,–,inactive
CC(=O)c1cccc(NC(=O)c2ccc(N(C)S(C)(=O)=O)cc2)c1,–,inactive
O=C(O)c1ccc(Cl)c(S(=O)(=O)NCC2CCCO2)c1 (centres undefined),inconclusive: -37.6% [inhibitor],–
O=C(Nc1ccc2c(c1)OCO2)c1cc(C2CCCN(C(=O)CCCc3ccccc3)C2)on1 (centres undefined),–,"inconclusive [inhibitor, single point]"
Cc1nc2c(c(C)c1CCC(=O)NCc1ccccc1)c(=O)n(C)c(=O)n2C,inconclusive: -31.1% [inhibitor],–
O=C(Nc1ccc(N2CCOCC2)cc1N1CCOCC1)c1cccs1,–,"inconclusive [inhibitor, single point]"
COc1ccc(CCNC(=O)CCCCCNc2nc(=S)[nH]c3ccccc23)cc1OC,–,active: 18.4 µM
CC(C)(C)OC(=O)C[C@@H]1C/C=C\C[C@@H](CC(=O)NCCO)C(=O)N[C@H](Cc2c[nH]c3ccccc23)COC1=O,–,"inconclusive [inhibitor, single point]"
Cc1cccc(NC(=O)C2CCC(CNS(=O)(=O)c3csc(C(N)=O)c3)CC2)c1C (centres undefined),–,inactive
COCC(=O)Nc1ccc(S(=O)(=O)N2CCCC2)cc1,–,inactive
O=c1oc2ccc3ccccc3c2cc1-c1nnc(-c2cccs2)o1,–,"inconclusive [inhibitor, single point]"
CC(C)C(=O)NC(c1ccc(Cl)cc1Cl)c1ccc2cccnc2c1O (centres undefined),–,active: 5.17 µM
COc1ccc(CNS(=O)(=O)CCNCCc2ccccc2)cc1,–,"inconclusive [inhibitor, single point]"
CC(C)(C)OC(=O)NNC(=O)c1cccs1,–,inactive

Compound,"activity change, negative = growth inhibition",Potency
O=S(=O)(NCc1csc(-c2ccccc2)n1)c1ccc(Cl)s1,–,"inconclusive [inhibitor, single point]"
Cc1c(C)n(Cc2ccccc2)c2ccc(C(=O)OCCCN(C)C)cc12,–,active: 20.6 µM
CC1CCN(C(=O)CN(c2ccc3c(c2)OCCO3)S(=O)(=O)c2ccccc2)CC1,–,"inconclusive [inhibitor, single point]"
CN(C(=O)COc1nnc(-c2cccs2)c(-c2cccs2)n1)c1ccccc1,–,active: 18.4 µM
N#Cc1c(N)n(-c2cccc(Cl)c2)c2nc3ccccc3nc12,–,inactive
C#CCOCCOCCOCCNc1nc(N2CCN(C(=O)[C@H](C)n3cc(CCC(=O)O)nn3)CC2)nc(N2CCN(C(=O)[C@H](CCCCN)n3cc(CCCC)nn3)CC2)n1,–,inactive
Cc1ccccc1NC(=O)C1C2CCCC1C2c1ccccc1 (centres undefined),–,"inconclusive [inhibitor, single point]"
Cc1nn2c(=O)cc(COc3ccc(/C=C(\C#N)C(=O)Nc4ccc(F)cc4)cc3)nc2s1,–,inactive
CCN1C(=O)Cc2cc(S(=O)(=O)NCCc3ccccc3)ccc21,–,"inconclusive [inhibitor, single point]"
COc1ccc(Nc2nc(N/N=C/c3ccc(N(C)C)cc3)nc(C)c2[N+](=O)[O-])cc1,–,"inconclusive [inhibitor, single point]"
CS(=O)(=O)c1ccc(C(=O)OCc2nnc(-c3ccc(Cl)cc3)o2)cc1[N+](=O)[O-],–,active: 4.61 µM
COc1ccc(-n2c(=S)[nH]c3cc(C(=O)NCc4ccccc4)ccc3c2=O)c(OC)c1,–,"inconclusive [inhibitor, partial curve]"
Cc1nc2ccc(Br)cc2c(-c2ccccc2)c1C(=O)O,–,"inconclusive [inhibitor, single point]"
C=CCn1c(C)cc(C(=O)COC(=O)c2n[nH]c(=O)c3ccccc23)c1C,–,"inconclusive [inhibitor, single point]"
O=C(CCN1C(=O)/C(=C/c2ccc(F)cc2)SC1=S)NCCc1ccc(O)cc1,–,"inconclusive [inhibitor, full curve]"
O=C(COc1ccccc1Cl)Nc1nnc(S(=O)(=O)N2CCCCCC2)s1,–,"inconclusive [inhibitor, partial curve, poor fit]"
CCOC(=O)COc1ccccc1C1C(C(=O)OC)=C(C)NC2=C1C(=O)c1ccccc12 (centres undefined),–,"inconclusive [inhibitor, single point]"
CN1C(=O)C2(C(C#N)=C(N)N(c3cc(Cl)cc(Cl)c3)C3=C2C(=O)CCC3)c2ccccc21 (centres undefined),–,"inconclusive [inhibitor, single point]"
COc1cccc(C2CC(=O)NC3=C2C(=O)CCC3)c1 (centres undefined),–,"inconclusive [inhibitor, full curve]"
Nc1cc2c(cc1Cl)-c1ccccc1C2=NO,–,"inconclusive [inhibitor, single point]"
CCOC(=O)c1c(NC(=O)CSc2nnc(-c3c[nH]c4ccccc34)n2CC)sc2c1CCCC2,–,"inconclusive [inhibitor, single point]"
COc1cc(NC(=O)NC(C)(C(F)(F)F)C(F)(F)F)cc(OC)c1OC,–,"inconclusive [inhibitor, partial curve, poor fit]"
